Data: the antibiotic and cytotoxicity screens of Wong et al. (2023)
This is one part of the list.

Assays:
[1] = test system: HSkMC (human skeletal muscle cells); assay: cytotoxicity call (relative viability < 0.9); settings: 10 µM
[2] = test system: HepG2; assay: cytotoxicity call (relative viability < 0.9); settings: 10 µM
[3] = test system: S. aureus RN4220; assay: growth inhibition call (relative growth <= 0.2); settings: 50 µM

Compound | cytotoxicity call [1] | cytotoxicity call [2] | growth inhibition call [3]
CCS(=O)(=O)N1C[C@]2(CN(C2)C(=O)Nc2ccc3c(c2)OCO3)c2c(n(c3cc(ccc23)OC)C)[C@@H]1CO | inactive | inactive | inactive
COc1ccc(NC(=O)N(C)C[C@@H]2OCCCC[C@@H](C)Oc3ccc(NC(=O)Nc4ccccc4)cc3C(=O)N([C@H](C)CO)C[C@@H]2C)cc1 | inactive | inactive | inactive
COc1ccc(S(=O)(=O)N(C)C[C@H]2Oc3c(NS(=O)(=O)c4ccc(C)cc4)cccc3C(=O)N([C@H](C)CO)C[C@@H]2C)cc1 | inactive | inactive | inactive
Cc1cccc(-c2nc3ccccc3n2CCC(C)C)c1 | inactive | inactive | inactive
C=CC[C@@H](CC(=O)N(CCO)Cc1ccccc1)C(=O)N[C@@H](COC(=O)[C@H](CC=C)CC(=O)OC(C)(C)C)Cc1c[nH]c2ccccc12 | inactive | inactive | inactive
O=C1CCC(=O)N1Cc1cccc(CN2C(=O)[C@]3(CC(=O)N(Cc4ccccc4)C3=O)c3ccccc32)c1 | inactive | inactive | inactive
C[C@H]1CCCCO[C@H](CN(C)Cc2ccc(C(F)(F)F)cc2)[C@@H](C)CN([C@@H](C)CO)C(=O)c2cc(NC(=O)CCC(F)(F)F)ccc2O1 | inactive | active | inactive
C[C@H](CO)N1C[C@H](C)[C@@H](CN(C)Cc2ccc(-c3ccccc3)cc2)Oc2ccc(NC(=O)Nc3ccc(C(F)(F)F)cc3)cc2CC1=O | active | active | inactive
